# Literature values in publication PMC7395068, “The evolution of strategies to minimise the risk of human drug-induced liver injury (DILI) in drug discovery and development” (Archives of Toxicology, 2020).
# Counter-ions that a name gives are not always drawn. Like-named read-outs stand apart in the source and are kept apart here.
# Columns and labels:
# [1] = cited from earlier work
# [2] = cited from earlier work; remark: listed apart in the source
# human hepatocytes = settings: In vitro Assay; ref Xu 2008; cited from earlier work
# [3] = system: isolated mouse liver mitochondria; settings: In vitro Assay; ref Porceddu 2012; cited from earlier work
# PHH spheroids = settings: In vitro Assay; ref Vorrink 2018; cited from earlier work
# [4] = ref Chen 2011; cited from earlier work
# [5] = system: HepG2 cells, primary human hepatocytes; settings: cited from earlier work
# [6] = binary in vivo human DILI call, ref Chen 2016
# [7] = human DILI, LTKB DILIrank category, ref Chen 2016
structure (smiles),measurement,setting,value
C[N+]1(C)CCC(OC(=O)C(O)(c2ccccc2)C2CCCC2)C1 (stereo not drawn) [glycopyrrolate],"DILI +VE (5-8), DILI -VE (-4)",[1]; [6],-VE
same,DILI severity category,[1]; [7],vNo-DILI-Concern
CC(C)[N+]1(C)[C@@H]2CC[C@H]1C[C@@H](OC(=O)C(CO)c1ccccc1)C2 (stereo partly drawn) [ipratropium],In vivo DILI,[2]; in vivo,-VE
O=C(O)COCCN1CCN([C@H](c2ccccc2)c2ccc(Cl)cc2)CC1 [levocetirizine dihydrochloride],"DILI +VE (5-8), DILI -VE (-4)",[1]; [6],+VE
same,DILI severity category,[1]; [7],vLess-DILI-Concern
CCN(CC)CC(=O)Nc1c(C)cccc1C [lidocaine],Structural based (HCI),human hepatocytes,-VE
same,In vivo DILI,[2]; ref Khetani 2012,-VE
same,In vivo DILI,[2]; ref O'Brien 2006,-VE
same,In vivo DILI,[2]; ref Persson 2013,-VE
same,In vivo DILI,[2]; ref Porceddu 2012,+VE
same,In vivo DILI,[2]; ref Vorrink 2018,-VE
same,In vivo DILI,[2]; ref Xu 2008,-VE
same,"DILI +VE (5-8), DILI -VE (-4)",[1]; ref Chen 2016,-VE
same,DILI severity category,[1]; ref Chen 2016,vNo-DILI-Concern
same,in vitro data EC2<=1x Cmax,[3],+VE
same,hLiMTs ATP <20 x Cmax,PHH spheroids,-VE
CCOC(=O)N1CCC(=C2c3ccc(Cl)cc3CCc3cccnc32)CC1 [loratadine],In vivo DILI,[2]; ref Aleo 2019,-VE
same,"DILI +VE (5-8), DILI -VE (-4)",[1]; ref Chen 2016,-VE
same,DILI severity category,[1]; ref Chen 2016,vNo-DILI-Concern
CN1CC[C@]23c4c5ccc(O)c4O[C@H]2[C@@H](O)C=C[C@H]3[C@H]1C5 [morphine],In vivo DILI,[2]; in vivo,-VE
same,"DILI +VE (5-8), DILI -VE (-4)",[1]; in vivo,-VE
same,DILI severity category,[1]; in vivo,vNo-DILI-Concern
COc1ccc2cc([C@H](C)C(=O)O)ccc2c1 [naproxen],DILI Score (FDA) (1-8),[4],3
same,In vivo DILI,[2]; […],+VE
same,In vivo DILI,[2]; ref Aleo 2019,+VE
same,In vivo DILI,[2]; ref Garside 2014,+VE
same,In vivo DILI,[2]; ref Gustafsson 2014,+VE
same,In vivo DILI,[2]; ref O'Brien 2006,+VE
same,In vivo DILI,[2]; ref Persson 2013,+VE
same,In vivo DILI,[2]; ref Proctor 2017,+VE
same,In vivo DILI,[2]; ref Williams 2019,+VE
same,"DILI +VE (5-8), DILI -VE (-4)",[1]; ref Chen 2016,+VE
same,DILI severity category,[1]; ref Chen 2016,vLess-DILI-Concern
same,Cluster 1-6 +VE Assay,"[5]; In vitro Assay, ref Garside 2014",-VE
CCCNCC(O)COc1ccccc1C(=O)CCc1ccccc1 (stereo not drawn) [propafenone],Structural based (HCI),human hepatocytes,-VE
same,In vivo DILI,[2]; ref Vorrink 2018,-VE
same,In vivo DILI,[2]; ref Xu 2008,-VE
same,"DILI +VE (5-8), DILI -VE (-4)",[1]; ref Chen 2016,+VE
same,DILI severity category,[1]; ref Chen 2016,vLess-DILI-Concern
same,hLiMTs ATP <20 x Cmax,PHH spheroids,-VE
CN1[C@@H]2C[C@@H](OC(=O)[C@H](CO)c3ccccc3)C[C@H]1[C@@H]1O[C@@H]12 [scopolamine],In vivo DILI,[2]; in vivo,-VE
same,"DILI +VE (5-8), DILI -VE (-4)",[1]; in vivo,-VE
same,DILI severity category,[1]; in vivo,vNo-DILI-Concern
same,Cluster 1-6 +VE Assay,[5],-VE
Cc1cc(NS(=O)(=O)c2ccc(N)cc2)no1 [sulfamethoxazole],in vitro data EC2<=1x Cmax,[3],+VE
Nc1ccc(S(N)(=O)=O)cc1 [sulfanilamide],In vivo DILI,"[2]; assignment in O'Brien 2006, ref O'Brien 2006",-VE
CN1C(=O)C(O)N=C(c2ccccc2)c2cc(Cl)ccc21 (stereo not drawn) [temazepam],"DILI +VE (5-8), DILI -VE (-4)",[1]; in vivo,-VE
same,DILI severity category,[1]; in vivo,Ambiguous DILI-concern
